According to the supplement of paper PMC4967469:
IC50 is the fitted dose that halves viability relative to control wells, and lower means more sensitive; fits outside the tested doses are given as limits. For AUC the same curve is integrated over the 256-fold range of doses and scaled to a fraction; values near 1 show little effect. For some assays here: A top dose marked as inferred was calculated from the reported fits. For some assays here: An entry number marks a drug with two screens in the source, which often give different values.

Experiments:
Experiment in all cases: Viability of human cancer cell lines after 72 h of drug (GDSC screen)
Zibotentan = compound: COc1nc(C)cnc1NS(=O)(=O)c1cccnc1-c1ccc(-c2nnco2)cc1 [Zibotentan]; settings: top dose 20 µM; top dose inferred
Description: (§1)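 Human cancer cell lines in 384-well plates, medium with 10% serum, drug for 72 h over a 256-fold dose range (nine 2-fold or five 4-fold steps up to the top dose). Adherent lines were fixed and stained with the nucleic acid dye Syto60, suspension lines read with resazurin; signal relative to control wells, capped at 0 and 100%. One two-parameter sigmoid per drug and line, fitted in a mixed model over all curves with the slope shared within a line.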

KU-55933 = compound: O=c1cc(-c2cccc3c2Sc2ccccc2S3)oc(N2CCOCC2)c1 [KU-55933]; settings: top dose 10 µM
Description: as §1

ABT-869 = compound: Cc1ccc(F)c(NC(=O)Nc2ccc(-c3cccc4[nH]nc(N)c34)cc2)c1 [ABT-869]; settings: top dose 1.024 µM; top dose inferred
Description: as §1

CP466722 = compound: COc1cc2ncnc(-n3nc(-c4ccccn4)nc3N)c2cc1OC [CP466722]; settings: top dose 16 µM; top dose inferred
Description: as §1

(5Z)-7-Oxozeaenol = compound: COc1cc(O)c2c(c1)/C=C/C[C@H](O)[C@H](O)C(=O)/C=C\C[C@H](C)OC2=O [(5Z)-7-Oxozeaenol]; settings: top dose 10 µM; top dose inferred
Description: as §1

ABT-888 = compound: C[C@]1(c2nc3c(C(N)=O)cccc3[nH]2)CCCN1 [ABT-888]; settings: top dose 5 µM; top dose inferred
Description: as §1

QL-X-138 = compound: C=CC(=O)Nc1cc(-n2c(=O)ccc3cnc4ccc(-c5cn[nH]c5)cc4c32)ccc1C [QL-X-138]; settings: top dose 10.24 µM; top dose inferred
Description: as §1

CMK = compound: Cc1ccc(-c2c(C(=O)CCl)n(CCCO)c3ncnc(N)c23)cc1 [CMK]; settings: top dose 4 µM; top dose inferred
Description: as §1

Cytarabine = compound: Nc1ccn([C@@H]2O[C@H](CO)[C@@H](O)[C@@H]2O)c(=O)n1 [Cytarabine]; settings: top dose 2 µM
Description: as §1

MPS-1-IN-1 = compound: COc1cc(N2CCC(O)CC2)ccc1Nc1cc(Nc2ccccc2S(=O)(=O)C(C)C)c2cc[nH]c2n1 [MPS-1-IN-1]; settings: top dose 20 µM; top dose inferred
Description: as §1

CHIR-99021 = compound: Cc1cnc(-c2cnc(NCCNc3ccc(C#N)cn3)nc2-c2ccc(Cl)cc2Cl)[nH]1 [CHIR-99021]
Description: as §1

Thapsigargin = compound: C/C=C(/C)C(=O)O[C@H]1C(C)=C2[C@H]([C@@H]1OC(=O)CCCCCCC)[C@@](C)(OC(C)=O)C[C@H](OC(=O)CCC)[C@@]1(O)[C@H]2OC(=O)[C@@]1(C)O [Thapsigargin]; settings: top dose 0.512 µM; top dose inferred
Description: as §1

GSK269962A = compound: CCn1c(-c2nonc2N)nc2cnc(Oc3cccc(NC(=O)c4ccc(OCCN5CCOCC5)cc4)c3)cc21 [GSK269962A]; settings: top dose inferred
Description: as §1

[1] = top dose 2.56 µM, screen: GDSC drug entry 154
[2] = top dose 10 µM, screen: GDSC drug entry 1241, top dose inferred
[3] = top dose 2.5 µM, screen: GDSC drug entry 127
[4] = top dose 5 µM, screen: GDSC drug entry 1192

Cell Line	AUC (Zibotentan)	IC50 (Zibotentan) [µM]	AUC (KU-55933)	IC50 (KU-55933) [µM]	AUC (ABT-869)	IC50 (ABT-869) [µM]	AUC (CP466722)	IC50 (CP466722) [µM]	AUC ((5Z)-7-Oxozeaenol)	IC50 ((5Z)-7-Oxozeaenol) [µM]	AUC (ABT-888)	IC50 (ABT-888) [µM]	AUC (QL-X-138)	IC50 (QL-X-138) [µM]	AUC (CMK)	IC50 (CMK) [µM]	AUC (Cytarabine)	IC50 (Cytarabine) [µM]	AUC (MPS-1-IN-1)	IC50 (MPS-1-IN-1) [µM]	AUC (CHIR-99021; [1])	IC50 (CHIR-99021; [1]) [µM]	AUC (CHIR-99021; [2])	IC50 (CHIR-99021; [2]) [µM]	AUC (Thapsigargin)	IC50 (Thapsigargin) [µM]	AUC (GSK269962A; [3])	IC50 (GSK269962A; [3]) [µM]	AUC (GSK269962A; [4])	IC50 (GSK269962A; [4]) [µM]
L-428 (Hodgkin lymphoma, suspension)	0.746	5.68	0.958	> 10	0.991	> 1.02	0.778	5.69	0.86	6.82	0.992	> 5	0.888	9.1	0.936	> 4	0.905	> 2	0.993	> 20	0.992	> 2.56	0.991	> 10	0.986	> 0.512	0.993	> 2.5	0.987	> 5
L-540 (Hodgkin lymphoma, suspension)	0.988	> 20	0.965	> 10	0.99	> 1.02	0.717	3.79	0.721	2.44	0.987	> 5	0.742	2.86	0.942	> 4	0.868	1.49	0.905	> 20	0.985	> 2.56	0.965	> 10	0.618	0.065	0.923	> 2.5	0.796	2.05
LAMA-84 (chronic myeloid leukaemia, suspension)	0.883	> 20	0.88	> 10	0.987	> 1.02	0.586	1.73	0.905	> 10	0.929	> 5	0.608	1.27	0.965	> 4	0.387	0.0609	0.912	> 20	0.983	> 2.56	0.985	> 10	0.454	0.024	0.921	> 2.5	0.959	> 5
LAN-6 (neuroblastoma, adherent)	0.985	> 20	0.985	> 10	0.947	> 1.02	0.862	> 16	0.728	3.2	0.982	> 5	0.882	> 10.2	0.843	3.66	0.88	> 2	0.798	11.6	0.985	> 2.56	0.93	> 10	0.844	0.475	0.98	> 2.5	0.926	> 5
LB373-MEL-D (melanoma, adherent)	0.989	> 20	0.99	> 10	0.99	> 1.02	0.955	> 16	0.684	2.02	0.99	> 5	0.968	> 10.2	0.962	> 4	0.873	1.85	0.951	> 20	0.967	> 2.56	0.912	> 10	0.476	0.0275	0.987	> 2.5	0.989	> 5
LB771-HNC (head and neck, adherent)	0.981	> 20	0.977	> 10	0.975	> 1.02	0.879	> 16	0.916	> 10	0.872	> 5	0.85	> 10.2	0.955	> 4	0.854	> 2	0.832	17.5	0.98	> 2.56	0.976	> 10	0.194	0.00297	0.961	> 2.5	0.937	> 5
LB1047-RCC (kidney, adherent)	0.983	> 20	0.908	> 10	0.96	> 1.02	0.777	7.28	0.499	0.62	0.983	> 5	0.774	4.53	0.802	2.26	0.506	0.13	0.922	> 20	0.899	> 2.56	0.898	> 10	0.312	0.00883	0.934	> 2.5	0.827	3.59
LB2518-MEL (melanoma, adherent)	0.982	> 20	0.986	> 10	0.977	> 1.02	0.973	> 16	0.657	1.75	0.987	> 5	0.987	> 10.2	0.961	> 4	0.941	> 2	0.938	> 20	0.89	> 2.56	0.954	> 10	0.334	0.0108	0.792	1.2	0.983	> 5
LC4-1 (lymphoblastic leukaemia, suspension)	0.973	> 20	0.981	> 10	0.984	> 1.02	0.623	2.27	0.573	1.01	0.984	> 5	0.334	0.21	0.958	> 4	0.942	> 2	0.867	> 20	0.968	> 2.56	0.894	> 10	0.571	0.0512	0.964	> 2.5	0.846	4.26
LOUCY (T-cell lymphoblastic leukaemia, suspension)	0.991	> 20	0.929	> 10	0.601	0.115	0.523	1.14	0.639	1.4	0.992	> 5	0.344	0.258	0.962	> 4	0.845	1.07	0.852	11.3	0.988	> 2.56	0.963	> 10	0.533	0.0386	0.797	0.944	0.604	0.57
LP-1 (myeloma, suspension)	0.987	> 20	0.98	> 10	0.983	> 1.02	0.738	4.14	0.822	4.58	0.993	> 5	0.523	0.73	0.903	3.67	0.99	> 2	0.838	10.3	0.993	> 2.56	0.972	> 10	0.308	0.0103	0.991	> 2.5	0.979	> 5
LS-513 (large intestine, adherent)	0.986	> 20	0.987	> 10	0.977	> 1.02	0.871	> 16	0.57	0.977	0.983	> 5	0.832	6.94	0.964	> 4	0.565	0.19	0.755	7.03	0.951	> 2.56	0.97	> 10	0.709	0.128	0.987	> 2.5	0.976	> 5
LS-1034 (large intestine, adherent)	0.981	> 20	0.977	> 10	0.986	> 1.02	0.867	> 16	0.78	4.57	0.974	> 5	0.887	> 10.2	0.977	> 4	0.977	> 2	0.764	7.98	0.984	> 2.56	0.977	> 10	0.465	0.0254	0.986	> 2.5	0.969	> 5
LU-134-A (small cell lung carcinoma, suspension)	0.985	> 20	0.984	> 10	0.974	> 1.02	0.935	> 16	0.908	> 10	0.987	> 5	0.728	2.99	0.913	> 4	0.947	> 2	0.941	> 20	0.96	> 2.56	0.981	> 10	0.663	–	0.944	> 2.5	0.938	> 5
LU-165 (small cell lung carcinoma, suspension)	0.988	> 20	0.984	> 10	0.988	> 1.02	0.891	> 16	0.977	> 10	0.985	> 5	0.759	3.99	0.982	> 4	0.988	> 2	0.97	> 20	0.986	> 2.56	0.987	> 10	0.841	0.422	0.959	> 2.5	0.92	> 5
MC116 (B-cell lymphoma, suspension)	0.998	> 20	0.999	> 10	0.999	> 1.02	0.822	5.98	0.878	5.18	0.999	> 5	0.912	6.54	0.728	0.887	0.954	1.74	0.915	13	0.962	2.4	0.961	9.29	0.139	0.00427	0.98	> 2.5	0.877	2.57
MC-CAR (haematopoietic neoplasm, suspension)	0.988	> 20	0.916	> 10	0.989	> 1.02	0.56	1.43	0.565	0.924	0.989	> 5	0.55	0.86	0.825	2.06	0.355	0.0521	0.829	10.7	0.975	> 2.56	0.907	> 10	0.474	0.0275	0.989	> 2.5	0.863	3.58
